Measured values as given in PubChem BioAssay AID504832 (National Center for Advancing Translational Sciences (NCATS), 2011).
Screen size: about 310,000 compounds; about 18,000 (5.8%) were called active. Inconclusive means that the source gave no clear call. Such entries were picked first, then a sample of the others. Calls follow the shape of the dose curve; as a rule, active = well fitted inhibition curve with a large enough effect; inconclusive = small, poorly fitted or top-dose-only effect, or another doubt; inactive = no such curve, though single readings can be large or run the other way. Potencies of inconclusive entries are left out as doubtful fits.

Test: Primary qHTS for delayed death inhibitors of the malarial parasite plastid, 48 hour incubation
Settings: P. falciparum luciferase growth in erythrocytes; series mostly up to 28.7 µM; activity change, negative = inhibition: at the top concentration
In short: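 Luminescence readout; reporter = integrated firefly luciferase in P. falciparum. RBC culture at 2% hematocrit, 0.1% parasitemia final, 37 C/5% CO2; decreased signal taken as growth inhibition.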
% is scaled to controls: 0 for no effect and ±100 for the full control effect; potency is read from the fitted curve at half-maximal effect; tags tell the direction and shape of the fitted curve.

Structure (SMILES) | Potency | activity change, negative = inhibition
Oc1ccc(Cl)cc1-c1cc(-c2ccccc2)n[nH]1 | active: 7.38 µM | 
Cc1cc(C)c2nc(-c3ccco3)cc(C(=O)O)c2c1 |  | inactive: 37.6%
COc1ccc(NC(=O)c2cc(-c3ccco3)on2)c(OC)c1 |  | inactive: -16.8%
O=C(Nc1cccc(-c2nc3cccnc3s2)c1)c1ccc(Cl)nc1 | inconclusive [inhibitor, single point] | 
COc1ccc(OCCSc2ccc(S(=O)(=O)N3CCCC3)cn2)cc1 | inconclusive [inhibitor, single point] | 
COC1CCN(C(=O)C2CCC(=O)N(C3CCCCCC3)C2)CC1 (centres undefined) |  | inactive: 2.1%
Cc1nnc(NC(=O)c2ccccc2Br)s1 |  | inactive: 65.4%
COc1c(N2CCN(C(=S)Nc3ccccc3F)C(C)C2)c(F)cc2c(=O)c(C(=O)O)cn(C3CC3)c12 (centres undefined) | inconclusive [inhibitor, full curve] | 
CCOC(=O)C1C2NC(=O)N(Cc3ccccc3)C1(C)Oc1c(OC)cccc12 (centres undefined) | inconclusive [inhibitor, full curve, poor fit] | 
Cc1ccc2c(CC(=O)N3CCN(S(=O)(=O)c4ccccc4)CC3)coc2c1 | inconclusive [inhibitor, single point] | 
CC(=O)Nc1cccc(NC(=O)c2ccc([N+](=O)[O-])cc2Cl)c1 |  | inactive: 19%
Cc1cc(C)c(NC(=O)CN2CCN3CCCC3C2)c(C)c1 (centres undefined) |  | inactive: 1.63%
CCN1C(=O)c2cccc3c(S(=O)(=O)NCc4cccnc4)ccc1c23 | inconclusive [inhibitor, single point] | 
CCCCC(CC)CNCC(O)c1ccccc1 (centres undefined) | inconclusive [inhibitor, single point] | 
O=c1c2c(nc3nc(NCc4cccc5ccccc45)[nH]n13)CCC2 |  | inactive: 32.4%
O=C1/C(=C\c2cc([N+](=O)[O-])ccc2O)SC(=S)N1Cc1ccc(Cl)cc1 | inconclusive [inhibitor, partial curve] | 
Cc1ccc(S(=O)(=O)N2CCN(C(=O)COC(=O)CSc3ccc(C)c(C)c3)CC2)c(C)c1 | inconclusive [inhibitor, single point] | 
S=C(NCCCCNC(=S)NCc1ccccc1)NCc1ccccc1 | inconclusive [inhibitor, single point] | 
O=C(O)COC(=O)Cc1ccccc1Nc1c(Cl)cccc1Cl | inconclusive [inhibitor, full curve, poor fit] | 
CCOC(=O)c1c(C)[nH]c(NC(=O)NNC(=O)c2ccccc2Cl)c1C |  | inactive: -10.6%
Cc1ccc(C)c(N2CCN(C(=O)CCS(=O)(=O)c3cccc4nonc34)CC2)c1 | inconclusive [inhibitor, partial curve] | 
O=C(CSc1nnc(-c2ccncc2)n1-c1ccccc1)Nc1ccc(C(=O)O)cc1 |  | inactive: 12.5%
CCCS(=O)(=O)c1nc(S(=O)(=O)c2ccc(C)cc2)c(N2CCc3ccccc3C2)s1 | active: 2.33 µM | 

Structure (SMILES) | Potency | activity change, negative = inhibition
COCCCn1c(SCc2nc3ccccc3c(=O)[nH]2)nc2ccccc2c1=O | inconclusive [inhibitor, single point] | 
Cc1cc(C)c(C(=O)COC(=O)Cn2cnnn2)cc1C |  | inactive: 6.97%
CCOc1ccc(NC(=O)COC(=O)C2(C)CC2(Cl)Cl)c([N+](=O)[O-])c1 (centres undefined) | inconclusive [inhibitor, partial curve] | 
O=C(NC1CCCC1)c1cc2nc(-c3ccccc3)cc(-c3ccccc3)n2n1 | inconclusive [inhibitor, full curve] | 
O=C(NCC1CCCO1)c1cncc(Br)c1 (centres undefined) | inconclusive [inhibitor, single point] | 
Cc1onc(-c2c(F)cccc2Cl)c1C(=O)OCC(=O)NC(c1ccccc1)c1ccccc1 | active: 11.7 µM | 
O=C(Nn1cnnc1)c1ccccc1-c1ccccc1 |  | inactive: 5.11%
CCOC(=O)c1cc(-c2ccc(F)cc2)n(CCC(=O)NC2CCN(Cc3ccccc3)CC2)c1C | inconclusive [inhibitor, partial curve, poor fit] | 
CCC(C)c1ccccc1N1CC(C(=O)Nc2ccccc2N2CCCC2)CC1=O (centres undefined) | inconclusive [inhibitor, single point] | 
COc1cccc(C(=O)NC2CCCc3c2cnn3-c2cc(C)cc(C)c2)c1 (centres undefined) |  | inactive: -2.99%
C=CCOc1ccc(C2CC(C)=NN2c2ccccc2)cc1 (centres undefined) |  | inactive: 14.7%
COc1ccccc1CNC(=O)C(NS(=O)(=O)c1cccc2nsnc12)C(C)C (centres undefined) | inconclusive [inhibitor, full curve] | 
O=C(OCc1ccc(COC(=O)c2ccc(O)cc2)cc1)c1ccc(O)cc1 | inconclusive [inhibitor, single point] | 
CCCOc1cccc(C(=O)NC(=S)Nc2ccc(N3CCN(C)CC3)cc2)c1 | inconclusive [inhibitor, partial curve, poor fit] | 
C/C(CC(=O)Nc1cccnc1)=N/NC(=O)COc1ccc(Cl)cc1Br | inconclusive [inhibitor, single point] | 
Nc1c(N(CCC2=CCCCC2)C(=O)c2ccco2)c(=O)[nH]c(=O)n1Cc1ccccc1 | inconclusive [inhibitor, single point] | 
Cc1ccc(NC(=O)CN2C(=O)NC3(CCCC3)C2=O)cc1S(=O)(=O)N1CCCCC1 | inconclusive [inhibitor, single point] | 
O=S(=O)(Nc1cccc2ncccc12)c1cccs1 | inconclusive [inhibitor, full curve] | 
COC(=O)CNC(=O)c1cc(-c2ccncc2)nc2ccccc12 |  | inactive: -41%
Cc1ccc(-c2cc(C(=O)NCc3ccccn3)c3ccccc3n2)cc1 | inconclusive [inhibitor, single point] | 
COC(=O)C1C=C2c3cccc4[nH]cc(c34)CC2N(C)C1 (centres undefined) | inconclusive [inhibitor, single point] | 
C=CCNC(=O)c1ccc(Cn2cc(C(F)(F)F)ccc2=O)cc1 | inconclusive [inhibitor, partial curve, poor fit] | 
Cc1cccn2c(CN[C@@H]3CCCC[C@H]3c3ccccc3)c(C(=O)N3CCOCC3)nc12 | inconclusive [inhibitor, single point] | 

Structure (SMILES) | Potency | activity change, negative = inhibition
C=CCN1CCN(C(=O)CSc2ccccc2)CC1 |  | inactive: 78.6%
Cc1c(C)c2ccc(OCC(=O)NCc3ccccn3)cc2oc1=O | inconclusive [inhibitor, single point] | 
CCNc1ccc(S(=O)(=O)C(F)(F)F)cc1NC(=O)C12CCC(CC1)C2 | inconclusive [inhibitor, single point] | 
C/C(=N\N=C(N)N)c1cccc(Cl)c1 | inconclusive [inhibitor, single point] | 
COC(=O)c1ccc(O)c(Sc2cc(C(=O)OC)ccc2O)c1 |  | inactive: 8.66%
CCc1nnc(NC(=O)CCS(=O)(=O)c2ccc(C)cc2)s1 | inconclusive [inhibitor, single point] | 
CCc1cccc(NC(=O)C2CCCN2S(=O)(=O)c2ccccc2C(F)(F)F)c1 (centres undefined) | inconclusive [inhibitor, single point] | 
CC(C)(C)OC(=O)N[C@H](C(=O)OC(C)(C)C)c1ccc2ccccc2c1 | inconclusive [inhibitor, single point] | 
O=C(CNC(=O)c1ccc(Cl)cc1Cl)NCC1CCCO1 (centres undefined) |  | inactive: 26.7%
Cc1cccc(NC(=S)NCCN(C2CCCCC2)C2CCCC2)c1 | inconclusive [inhibitor, partial curve] | 
CCCCn1c(N)c(N(CCOC)C(=O)c2cccc(S(=O)(=O)N3CCCCC3)c2)c(=O)[nH]c1=O | inconclusive [inhibitor, partial curve, poor fit] | 
Cn1c(=O)[nH]c(=O)c2c1nc(NCCCn1ccnc1)n2Cc1cccc(Br)c1 | inconclusive [inhibitor, single point] | 
COc1ccc(C(CNC(=O)c2ccc(-c3cccc(C(F)(F)F)c3)o2)N2CCOCC2)cc1 (centres undefined) | active: 6.57 µM | 
CC1=C(C(=O)Nc2cc(C(=O)N3CCN(c4cccc(C)c4C)CC3)ccc2C)SCCO1 |  | inactive: -12.7%
Clc1ccc(-c2cn(-c3ccc(Cl)cc3)c3[n+]2CCCCC3)cc1 | inconclusive [inhibitor, full curve] | 
O=C(COc1ccc(Cl)cc1Br)Nc1ccccc1N1CCCC1 | inconclusive [inhibitor, single point] | 
COc1ccccc1-c1cn[nH]c1-c1ccc(OCC(=O)NN)cc1O | inconclusive [inhibitor, partial curve] | 
CCCNC(=O)C(Cc1cccc(Cl)c1)NC(=O)c1ccccc1 (centres undefined) | inconclusive [inhibitor, single point] | 
CC(C)=CCN1CCNC(=O)C1CC(=O)NCc1nc(C)c(C)s1 (centres undefined) |  | inactive: 0%
CC(C)N(CCNC(=O)c1ccc(CS(=O)(=O)c2c(Cl)cccc2Cl)o1)Cc1ccccc1 | inconclusive [inhibitor, single point] | 
Cc1cccc(NC(=O)CSCC(=O)Nc2ccc(S(=O)(=O)N3CCCCC3)cc2)c1 | inconclusive [inhibitor, single point] | 
CC1(C)OC(=O)C(=Cc2ccc[nH]2)C(=O)O1 | inconclusive [inhibitor, partial curve] | 
O=C(Nc1cc(=O)[nH]c2nc(-c3ccccc3)nn12)c1ccccc1Cl | inconclusive [inhibitor, full curve] | 
